# Data reported in the supplement of paper PMC12217912.
# The list shows a part of the results. Sequences were assembled here from the parent chain. Inactive controls read about 0.05.
# B1: TEV protease; numbered along this chain (parent)
# chain: MGESLFKGPRDYNPISSSICHLTNESDGHTTSLYGIGFGPFIITNKHLFRRNNGTLVVQSLHGVFKVKDTTTLQQHLVDGRDMIIIRMPKDFPPFPQKLKFREPQREERICLVTTNFQTKSMSSMVSDTSCTFPSGDGIFWKHWIQTKDGQCGSPLVSTRDGFIVGIHSASNFTNTNNYFTSVPKNFMELLTNQEAQQWVSGWRLNADSVLWGGHKVFMVKPEEPFQPVKEATQL
# Variants of: B1
# Assay: raw area under fraction-flipped curve 0-4 h after induction (AUC4h, not background-subtracted), DNA-recorder readout of cleavage of the substrate (dimensionless); higher = more cleavage of the substrate by the protease variant
# Details: temperature: 34 °C; time window: 0-4 h after rhamnose induction
# Method: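 In vivo DNA recorder in E. coli TOP10(DE3) ΔrhaA at 34 °C. Each TEVp single-site mutant (parent TEVp 0) is paired with a single-site variant of the 7-mer TEVs (canonical ENLYFQ|S). The substrate sits between flexible linkers in a Bxb1-sfGFP-TEVs-SsrA fusion, so cleavage stabilises Bxb1 and speeds flipping of a recombination array, read by NGS. The value is the raw area under the fraction-flipped curve over 0-4 h after rhamnose induction (AUC4h), with ≥20 reads per time point. It is not background-subtracted; inactive controls average about 0.047.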
# 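Note: Bxb1 expression induced with 0.2% (w/v) L-rhamnose at OD600 near 0.5, cultures sampled hourly, flipped fraction per protease–substrate barcode pair counted by paired-end Illumina sequencing.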
variant,measurement,value
MGESLFKGPRDYNPISSSRCHLTNESDGHTTSLYGIGFGPFIITNKHLFRRNNGTLVVQSLHGVFKVKDTTTLQQHLVDGRDMIIIRMPKDFPPFPQKLKFREPQREERICLVTTNFQTKSMSSMVSDTSCTFPSGDGIFWKHWIQTKDGQCGSPLVSTRDGFIVGIHSASNFTNTNNYFTSVPKNFMELLTNQEAQQWVSGWRLNADSVLWGGHKVFMVKPEEPFQPVKEATQL [I19R],area with substrate ENLYFQA,0.0655
same,area with substrate ENLYFQC,0.0726
same,area with substrate ENLYFQD,0.0568
same,area with substrate ENLYFQG,0.0571
same,area with substrate ENLYFQI,0.042
same,area with substrate ENLYFQK,0.0577
same,area with substrate ENLYFQL,0.0478
same,area with substrate ENLYFQM,0.0551
same,area with substrate ENLYFQN,0.0492
same,area with substrate ENLYFQP,0.0536
same,area with substrate ENLYFQR,0.0569
same,area with substrate ENLYFQS,0.0571
same,area with substrate ENLYFQT,0.0324
same,area with substrate ENLYFQV,0.051
same,area with substrate ENLYFQW,0.0494
same,area with substrate ENLYFQY,0.0628
MGESLFKGPRDYNPIYSSICHLTNESDGHTTSLYGIGFGPFIITNKHLFRRNNGTLVVQSLHGVFKVKDTTTLQQHLVDGRDMIIIRMPKDFPPFPQKLKFREPQREERICLVTTNFQTKSMSSMVSDTSCTFPSGDGIFWKHWIQTKDGQCGSPLVSTRDGFIVGIHSASNFTNTNNYFTSVPKNFMELLTNQEAQQWVSGWRLNADSVLWGGHKVFMVKPEEPFQPVKEATQL [S16Y],area with substrate ENLYFQA,0.117
same,area with substrate ENLYFQC,0.116
same,area with substrate ENLYFQD,0.0976
same,area with substrate ENLYFQG,0.0913
same,area with substrate ENLYFQI,0.0614
same,area with substrate ENLYFQL,0.0657
same,area with substrate ENLYFQM,0.0862
same,area with substrate ENLYFQP,0.0496
same,area with substrate ENLYFQR,0.0614
same,area with substrate ENLYFQS,0.0996
same,area with substrate ENLYFQT,0.0891
same,area with substrate ENLYFQV,0.0619
same,area with substrate ENLYFQW,0.0803
MGESLFKGPRDYNPIQSSICHLTNESDGHTTSLYGIGFGPFIITNKHLFRRNNGTLVVQSLHGVFKVKDTTTLQQHLVDGRDMIIIRMPKDFPPFPQKLKFREPQREERICLVTTNFQTKSMSSMVSDTSCTFPSGDGIFWKHWIQTKDGQCGSPLVSTRDGFIVGIHSASNFTNTNNYFTSVPKNFMELLTNQEAQQWVSGWRLNADSVLWGGHKVFMVKPEEPFQPVKEATQL [S16Q],area with substrate ENLYFQA,0.109
same,area with substrate ENLYFQC,0.123
same,area with substrate ENLYFQD,0.0728
same,area with substrate ENLYFQE,0.0474
same,area with substrate ENLYFQF,0.0929
same,area with substrate ENLYFQG,0.0871
same,area with substrate ENLYFQH,0.0778
same,area with substrate ENLYFQI,0.0683
same,area with substrate ENLYFQK,0.0581
same,area with substrate ENLYFQL,0.0668
same,area with substrate ENLYFQM,0.0923
same,area with substrate ENLYFQN,0.0891
same,area with substrate ENLYFQP,0.0671
same,area with substrate ENLYFQQ,0.0827
same,area with substrate ENLYFQR,0.0619
same,area with substrate ENLYFQS,0.108
same,area with substrate ENLYFQT,0.0735
same,area with substrate ENLYFQV,0.0603
same,area with substrate ENLYFQW,0.0672
same,area with substrate ENLYFQY,0.0732
MGESLFKGPRDYNPIRSSICHLTNESDGHTTSLYGIGFGPFIITNKHLFRRNNGTLVVQSLHGVFKVKDTTTLQQHLVDGRDMIIIRMPKDFPPFPQKLKFREPQREERICLVTTNFQTKSMSSMVSDTSCTFPSGDGIFWKHWIQTKDGQCGSPLVSTRDGFIVGIHSASNFTNTNNYFTSVPKNFMELLTNQEAQQWVSGWRLNADSVLWGGHKVFMVKPEEPFQPVKEATQL [S16R],area with substrate ENLYFQA,0.111
same,area with substrate ENLYFQC,0.134
same,area with substrate ENLYFQD,0.0602
same,area with substrate ENLYFQF,0.0819
same,area with substrate ENLYFQG,0.101
same,area with substrate ENLYFQI,0.0595
same,area with substrate ENLYFQK,0.0751
same,area with substrate ENLYFQL,0.0644
same,area with substrate ENLYFQM,0.0918
same,area with substrate ENLYFQN,0.0728
same,area with substrate ENLYFQP,0.0552
same,area with substrate ENLYFQQ,0.0694
same,area with substrate ENLYFQR,0.0716
same,area with substrate ENLYFQS,0.111
same,area with substrate ENLYFQT,0.0744
same,area with substrate ENLYFQV,0.0636
same,area with substrate ENLYFQW,0.0638
same,area with substrate ENLYFQY,0.0768
MGESLFKGPRDYNPITSSICHLTNESDGHTTSLYGIGFGPFIITNKHLFRRNNGTLVVQSLHGVFKVKDTTTLQQHLVDGRDMIIIRMPKDFPPFPQKLKFREPQREERICLVTTNFQTKSMSSMVSDTSCTFPSGDGIFWKHWIQTKDGQCGSPLVSTRDGFIVGIHSASNFTNTNNYFTSVPKNFMELLTNQEAQQWVSGWRLNADSVLWGGHKVFMVKPEEPFQPVKEATQL [S16T],area with substrate ENLYFQA,0.104
same,area with substrate ENLYFQC,0.115
same,area with substrate ENLYFQG,0.101
same,area with substrate ENLYFQH,0.0873
same,area with substrate ENLYFQI,0.0615
same,area with substrate ENLYFQK,0.0455
same,area with substrate ENLYFQL,0.0579
same,area with substrate ENLYFQN,0.0672
same,area with substrate ENLYFQP,0.0589
same,area with substrate ENLYFQQ,0.0697
same,area with substrate ENLYFQR,0.0546
same,area with substrate ENLYFQS,0.102
same,area with substrate ENLYFQT,0.0661
same,area with substrate ENLYFQV,0.0554
same,area with substrate ENLYFQW,0.0605
MGESLFKGPRDYNPINSSICHLTNESDGHTTSLYGIGFGPFIITNKHLFRRNNGTLVVQSLHGVFKVKDTTTLQQHLVDGRDMIIIRMPKDFPPFPQKLKFREPQREERICLVTTNFQTKSMSSMVSDTSCTFPSGDGIFWKHWIQTKDGQCGSPLVSTRDGFIVGIHSASNFTNTNNYFTSVPKNFMELLTNQEAQQWVSGWRLNADSVLWGGHKVFMVKPEEPFQPVKEATQL [S16N],area with substrate ENLYFQA,0.123
same,area with substrate ENLYFQD,0.0641
same,area with substrate ENLYFQG,0.0908
same,area with substrate ENLYFQH,0.0794
same,area with substrate ENLYFQI,0.068
same,area with substrate ENLYFQK,0.0408
same,area with substrate ENLYFQL,0.0556
same,area with substrate ENLYFQM,0.0988
same,area with substrate ENLYFQN,0.0826
same,area with substrate ENLYFQQ,0.0576
same,area with substrate ENLYFQR,0.0592
same,area with substrate ENLYFQS,0.104
same,area with substrate ENLYFQT,0.06
same,area with substrate ENLYFQV,0.0822
same,area with substrate ENLYFQW,0.0611
same,area with substrate ENLYFQY,0.0924
MGESLFKGPRDYNPISWSICHLTNESDGHTTSLYGIGFGPFIITNKHLFRRNNGTLVVQSLHGVFKVKDTTTLQQHLVDGRDMIIIRMPKDFPPFPQKLKFREPQREERICLVTTNFQTKSMSSMVSDTSCTFPSGDGIFWKHWIQTKDGQCGSPLVSTRDGFIVGIHSASNFTNTNNYFTSVPKNFMELLTNQEAQQWVSGWRLNADSVLWGGHKVFMVKPEEPFQPVKEATQL [S17W],area with substrate ENLYFQA,0.094
same,area with substrate ENLYFQC,0.109
same,area with substrate ENLYFQD,0.0631
same,area with substrate ENLYFQG,0.0917
same,area with substrate ENLYFQH,0.0762
same,area with substrate ENLYFQI,0.0556
same,area with substrate ENLYFQL,0.0641
same,area with substrate ENLYFQM,0.0892
same,area with substrate ENLYFQN,0.0779
same,area with substrate ENLYFQQ,0.0706
same,area with substrate ENLYFQR,0.0653
same,area with substrate ENLYFQS,0.103
same,area with substrate ENLYFQT,0.0518
same,area with substrate ENLYFQV,0.0526
same,area with substrate ENLYFQW,0.067
same,area with substrate ENLYFQY,0.0629
MGESLFKGPRDYNPISSSICPLTNESDGHTTSLYGIGFGPFIITNKHLFRRNNGTLVVQSLHGVFKVKDTTTLQQHLVDGRDMIIIRMPKDFPPFPQKLKFREPQREERICLVTTNFQTKSMSSMVSDTSCTFPSGDGIFWKHWIQTKDGQCGSPLVSTRDGFIVGIHSASNFTNTNNYFTSVPKNFMELLTNQEAQQWVSGWRLNADSVLWGGHKVFMVKPEEPFQPVKEATQL [H21P],area with substrate ENLYFQA,0.0411
same,area with substrate ENLYFQC,0.0435
same,area with substrate ENLYFQD,0.0642
same,area with substrate ENLYFQE,0.0515
same,area with substrate ENLYFQG,0.0524
same,area with substrate ENLYFQH,0.0522
same,area with substrate ENLYFQI,0.0512
same,area with substrate ENLYFQK,0.0475
same,area with substrate ENLYFQL,0.053
same,area with substrate ENLYFQM,0.053
same,area with substrate ENLYFQN,0.0494
same,area with substrate ENLYFQP,0.0244
same,area with substrate ENLYFQR,0.0539
same,area with substrate ENLYFQS,0.0544
same,area with substrate ENLYFQT,0.0491
same,area with substrate ENLYFQV,0.0517
same,area with substrate ENLYFQW,0.0445
same,area with substrate ENLYFQY,0.058
